Source: the supplement of paper PMC8728848
Some of the results follow.

Assays:
Assay in all cases: glycan array binding signal (z-score within array); higher = stronger binding
Details in all cases: glycan notation: IUPAC condensed, linker removed
[1] = target: Neu5Ac(a2-6)GlcNAc(b1-4)GlcNAc
Outline: (§1)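 Arrays were curated from the Consortium for Functional Glycomics database, 3228 in total, and kept only where the protein sequence was available. Binding is expressed as a within-array Z-score. This score was averaged across arrays of the same protein sequence at different concentrations or buffers and across linkers, and negative values can be read as non-binding.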

[2] = target: Neu5Ac(a2-6)GlcNAc(b1-4)GlcNAc(b1-4)GlcNAc
Outline: as §1

[3] = target: Neu5Ac(a2-8)Neu5Ac
Outline: as §1

[4] = target: Neu5Ac(a2-8)Neu5Ac(a2-3)Gal(b1-3)GalNAc(b1-4)[Neu5Ac(a2-3)]Gal(b1-4)Glc
Outline: as §1

[5] = target: Neu5Ac(a2-8)Neu5Ac(a2-3)Gal(b1-3)GalNAc(b1-4)[Neu5Ac(a2-8)Neu5Ac(a2-3)]Gal(b1-4)Glc
Outline: as §1

[6] = target: Neu5Ac(a2-8)Neu5Ac(a2-3)Gal(b1-4)Glc
Outline: as §1

[7] = target: Neu5Ac(a2-8)Neu5Ac(a2-3)Gal(b1-4)GlcNAc
Outline: as §1

[8] = target: Neu5Ac(a2-8)Neu5Ac(a2-3)[Gal(b1-3)GalNAc(b1-4)]Gal(b1-4)Glc
Outline: as §1

[9] = target: Neu5Ac(a2-8)Neu5Ac(a2-3)[GalNAc(b1-4)]Gal(b1-4)Glc
Outline: as §1

[10] = target: Neu5Ac(a2-8)Neu5Ac(a2-8)Neu5Ac
Outline: as §1

[11] = target: Neu5Ac(a2-8)Neu5Ac(a2-8)Neu5Ac(a2-3)Gal(b1-4)Glc
Outline: as §1

[12] = target: Neu5Ac(a2-8)Neu5Ac(a2-8)Neu5Ac(a2-3)[Gal(b1-3)GalNAc(b1-4)]Gal(b1-4)Glc
Outline: as §1

[13] = target: Neu5Ac(a2-8)Neu5Ac(a2-8)Neu5Ac(a2-3)[GalNAc(b1-4)]Gal(b1-4)Glc
Outline: as §1

[14] = target: Neu5Ac(a2-8)Neu5Ac(a2-8)Neu5Ac(a2-8)Neu5Ac(a2-3)[GalNAc(b1-4)]Gal(b1-4)Glc
Outline: as §1

[15] = target: Neu5Ac(a2-8)Neu5Gc(a2-3)Gal(b1-4)GlcNAc
Outline: as §1

[16] = target: Neu5Ac(b1-6)GalNAc
Outline: as §1

[17] = target: Neu5Ac(b2-6)Gal(b1-4)GlcNAc
Outline: as §1

[18] = target: Neu5Ac(b2-6)GalNAc
Outline: as §1

[19] = target: Neu5Ac9Ac(a2-3)Gal(b1-3)GlcNAc
Outline: as §1

[20] = target: Neu5Ac9Ac(a2-3)Gal(b1-4)GlcNAc
Outline: as §1

[21] = target: Neu5Ac9Ac(a2-6)Gal(b1-4)GlcNAc
Outline: as §1

[22] = target: Neu5Gc(a2-3)Gal(b1-3)GlcNAc
Outline: as §1

[23] = target: Neu5Gc(a2-3)Gal(b1-3)[Fuc(a1-4)]GlcNAc
Outline: as §1

[24] = target: Neu5Gc(a2-3)Gal(b1-4)Glc
Outline: as §1

[25] = target: Neu5Gc(a2-3)Gal(b1-4)GlcNAc
Outline: as §1

[26] = target: Neu5Gc(a2-3)Gal(b1-4)GlcNAc(b1-3)Gal(b1-4)GlcNAc(b1-2)Man(a1-3)[Neu5Gc(a2-3)Gal(b1-4)GlcNAc(b1-3)Gal(b1-4)GlcNAc(b1-2)Man(a1-6)]Man(b1-4)GlcNAc(b1-4)GlcNAc
Outline: as §1

[27] = target: Neu5Gc(a2-3)Gal(b1-4)[Fuc(a1-3)]GlcNAc
Outline: as §1

[28] = target: Neu5Gc(a2-3)Gal(b1-4)[Fuc(a1-4)]GlcNAc
Outline: as §1

[29] = target: Neu5Gc(a2-6)Gal(b1-4)GlcNAc
Outline: as §1

[30] = target: Neu5Gc(a2-6)GalNAc
Outline: as §1

[31] = target: Neu5Gc(a2-8)Neu5Ac(a2-3)Gal(b1-4)GlcNAc
Outline: as §1

[32] = target: Neu5Gc(a2-8)Neu5Gc(a2-3)Gal(b1-4)GlcNAc
Outline: as §1

[33] = target: Neu5Gc(a2-8)Neu5Gc(a2-3)Gal(b1-4)GlcNAc(b1-3)Gal(b1-4)GlcNAc
Outline: as §1

[34] = target: Neu5Gc(a2-8)Neu5Gc(a2-6)Gal(b1-4)GlcNAc
Outline: as §1

[35] = target: Neu5Gc(b2-6)Gal(b1-4)GlcNAc
Outline: as §1

B1: UEA-I (Ulex europaeus), P22972 (protein)
chain: SDDLSFKFKNFSQNGKDLSFQGDASVIETGVLQLNKVGNNLPDETGGIARYIAPIHIWNCNTGEVASFITSFSFFMETSANPKAATDGLTFFLAPPDSPLRRAGGYFGLFEDTKDNDSSYQTVAVEFDTIGSPVNFDDPGFPHIGIDVNRVKSINAERWNKRYGLNNVANVEIIYEASSKTLTASLTYPSDQTSISVTSIVDLKEILPEWVSVGFSGGTYIGRQATHEVLNWYFTSNLINTNS
[1]
  glycan array binding signal (z-score): -0.161
[2]
  glycan array binding signal (z-score): 0.158
[3]
  glycan array binding signal (z-score): -0.194
[4]
  glycan array binding signal (z-score): -0.298
[5]
  glycan array binding signal (z-score): -0.246
[6]
  glycan array binding signal (z-score): -0.244
[7]
  glycan array binding signal (z-score): -0.243
[8]
  glycan array binding signal (z-score): -0.233
[9]
  glycan array binding signal (z-score): -0.259
[10]
  glycan array binding signal (z-score): -0.232
[11]
  glycan array binding signal (z-score): -0.19
[12]
  glycan array binding signal (z-score): -0.016
[13]
  glycan array binding signal (z-score): -0.148
[14]
  glycan array binding signal (z-score): -0.206
[15]
  glycan array binding signal (z-score): -0.215
[16]
  glycan array binding signal (z-score): -0.242
[17]
  glycan array binding signal (z-score): -0.23
[18]
  glycan array binding signal (z-score): -0.195
[19]
  glycan array binding signal (z-score): -0.195
[20]
  glycan array binding signal (z-score): -0.155
[21]
  glycan array binding signal (z-score): -0.244
[22]
  glycan array binding signal (z-score): -0.202
[23]
  glycan array binding signal (z-score): -0.169
[24]
  glycan array binding signal (z-score): -0.125
[25]
  glycan array binding signal (z-score): -0.186
[26]
  glycan array binding signal (z-score): -0.16
[27]
  glycan array binding signal (z-score): -0.176
[28]
  glycan array binding signal (z-score): -0.137
[29]
  glycan array binding signal (z-score): -0.164
[30]
  glycan array binding signal (z-score): -0.073
[31]
  glycan array binding signal (z-score): -0.249
[32]
  glycan array binding signal (z-score): -0.238
[33]
  glycan array binding signal (z-score): -0.117
[34]
  glycan array binding signal (z-score): -0.206
[35]
  glycan array binding signal (z-score): -0.1
